Measurements taken from PubChem BioAssay AID1745853 (National Center for Advancing Translational Sciences (NCATS), 2022).
Values joined by “and” are separate entries in the source; they are usually repeats but may differ in a detail not shown here. Equal entries are not always repeated. This is one part of the list. Further columns of the screen follow, without active or inactive calls.

Key:
Assay in all cases: Primary Screen for Target Class Profiling of Small Molecule Inhibitors of Methyltransferases
[1] = target: Glycine N-methyltransferase (Homo sapiens) (UniProt Q14749); details: purified enzyme, MTase-Glo SAH luminescence; measured here: GNMT inhibition; at 40 µM; stronger effect = lower value
Procedure, shortened: (§1)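 Each enzyme was reacted with SAM and its substrate, with compounds tested once at 40 uM; SAH formed was read by MTase-Glo luminescence.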

[2] = target: Guanidinoacetate N-methyltransferase (Homo sapiens) (UniProt Q14353); details: purified enzyme, MTase-Glo SAH luminescence; measured here: GAMT inhibition; at 40 µM; stronger effect = lower value
Procedure, shortened: as §1

[3] = target: Histamine N-methyltransferase (Homo sapiens) (UniProt P50135); details: purified enzyme, MTase-Glo SAH luminescence; measured here: HNMT inhibition; at 40 µM; stronger effect = lower value
Procedure, shortened: as §1

[4] = target: Nicotinamide N-methyltransferase (Homo sapiens) (UniProt P40261); details: purified enzyme, MTase-Glo SAH luminescence; measured here: NNMT inhibition; at 40 µM; stronger effect = lower value
Procedure, shortened: as §1

[5] = target: Phenylethanolamine N-methyltransferase (Homo sapiens) (UniProt P11086); details: purified enzyme, MTase-Glo SAH luminescence; measured here: PNMT inhibition; at 40 µM; stronger effect = lower value
Procedure, shortened: as §1
% is set by controls: 0 for no effect and ±100 for the full control effect.

| Structure (SMILES) | activity change, negative = inhibition [1] [%] | activity change, negative = inhibition [2] [%] | activity change, negative = inhibition [3] [%] | activity change, negative = inhibition [4] | activity change, negative = inhibition [5] |
| --- | --- | --- | --- | --- | --- |
| CCc1cc(=O)n(CC(=O)N2CCN(c3ccccc3OC)CC2)c(-c2ccccc2)n1 | -3.77 | 1.51 | -0.445 | -3.83% | -1.6% |
| FC(F)(F)c1nnc2c(Sc3ccccc3)nc3ccc(Cl)cc3n12 | 6.66 | 1.43 | 8.61 | -12.6% | -5.96% |
| COc1cc(S(=O)(=O)N2CCC(n3c(=O)[nH]c4ccccc43)CC2)ccc1-n1cnnn1 | -8.73 | 1.9 | -11.1 | 3.58% | -11.1% |
| Cn1c(Cn2ccnc2)nnc1C1CCCN(CCOCc2ccccc2)C1 (stereo not given) | -5.65 | -9.91 | -4.33 | -10.9% | -1.96% |
| COc1ccccc1CNC(=O)C1(C)Cn2nc(-c3ccccc3)cc2C(=O)N1Cc1ccc(C)o1 (stereo not given) | 2.25 | 9.35 | 5.87 | -3.96% | 0.841% |
| COc1ccccc1-c1cc(Nc2cccc(CS(N)(=O)=O)c2)ncn1 | 1.09 | -1.99 | -19.8 | -29.7% | -6.69% |
| CC1(COc2ccc3c(c2)ncn3-c2ccc3cccc(N4CCC(N)CC4)c3n2)COC1 | -38.5 | -45.2 | -59.4 | -49.8% | -71% |
| Cc1ccc(NC(=O)Cn2nc3n(C)c(=O)c4ccc(C(=O)NC5CCCCC5)cc4n3c2=O)c(C)c1 | 5.9 | 0 | 10.6 | 2.84% | 5.86% |
| Cc1ccc(C)c(Cn2nc3n(CCc4ccccc4)c(=O)c4ccccc4n3c2=O)c1 | 2.27 | 2.26 | 3.41 | 7.32% | 0.391% |
| Cc1ccccc1NC(=O)Cn1nc2n(CC(C)C)c(=O)c3ccc(C(=O)NCC(C)C)cc3n2c1=O | 4.28 | 0 | 3.65 | 1.85% | 3.64% |
| COc1cc(/C=C/c2cn(-c3ccc(C(=O)O)cc3)nc2/C=C/c2ccc(O)c(OC)c2)ccc1O | -79.3 | -3.26 | -15.2 | -6.64% and -26.4% | -2.15% and -5.18% |
| COc1ccc(CC(=O)N2CC[C@@H](CC(=O)O)[C@@H](CCN(C)c3ccccc3)C2)cc1 | -20.7 | -7.32 | -5.06 | -10% | -15.9% |
| CCOCCCNC(=O)c1ccc2c(=O)nc3c(-c4ccccc4)n[nH]n3c2c1 | -8.65 | -3 | -3.81 | -0.641% | -4.95% |
| CNC(=O)c1cc(C2CC2)nc2c1c(C1CCCN1C(=O)c1ccc(C(F)(F)F)cc1)nn2C (stereo not given) | -1.49 | -3.03 | 1.32 | -0.415% | -1.18% |
| COc1ccc(C(=O)NC[C@H]2O[C@@H](CC(=O)Nc3ccccc3)[C@H](O)[C@@H]2O)cc1 | 3.13 | -1.49 | 0.451 | -1.81% | -24.2% |
| CCN1C(=O)c2c(C(=O)NCCCc3ccccc3)ncn2CC1(C)C(=O)NC1CCCC1 (stereo not given) | -6.66 | -4.44 | 7.49 | -6.74% | 3.62% |
| O=C(CCc1nnc2n(Cc3ccc(Cl)cc3)c(=O)c3ccccc3n12)NC1CC1 | -6.58 | 3.86 | 2.39 | 4.87% | -4.17% |
| COc1cccc(CN2C(=O)c3cc4ccccc4n3CC2(C)C(=O)NCC2CCCO2)c1 (stereo not given) | 4.83 | 5.58 | 10.1 | 6.75% | 0.681% |
| O=C(NC1CC1)c1cc2n(n1)CCCN(C(=O)c1ccccc1-c1ccccc1)C2 | -2.44 | -2.67 | -3.85 | -8.42% | -5.62% |

| Structure (SMILES) | activity change, negative = inhibition [1] [%] | activity change, negative = inhibition [2] [%] | activity change, negative = inhibition [3] [%] | activity change, negative = inhibition [4] | activity change, negative = inhibition [5] |
| --- | --- | --- | --- | --- | --- |
| Cc1ccc(S(=O)(=O)c2nnn3c2nc(N2CCC(C(N)=O)CC2)c2cc(Cl)ccc23)cc1C | -26.1 | -1.88 | -16.6 | -11.9% | -14.7% |
| O=C1CN(Cc2ccc(F)cc2Cl)S(=O)(=O)c2ccccc2N1Cc1ccc(Cl)cc1 | 2.25 | 0 | -0.113 | -5.2% | -2.89% |
| CC1(C(=O)NC2CCCCCCC2)Cn2c(cc3occc32)C(=O)N1Cc1cccs1 (stereo not given) | -2.59 | 0 | 1.21 | -22.7% | 0.032% |
| COc1ccc(C(=O)N[C@@H]2CCC[C@@H]2C(=O)NCc2ccc(C)o2)cn1 | -8.1 | -7.96 | -2.63 | -12.5% | -9.28% |
| COc1cccc(N2CCN(c3ccc4nnc(CCC(=O)N5CCN(c6ccc(F)cc6)CC5)n4n3)CC2)c1 | -6.19 | 1.25 | -12.5 | -5.83% | 5.39% |
| COc1ccc(S(=O)(=O)Nc2nc(-c3cccc([N+](=O)[O-])c3)cs2)cc1OC | -4.12 | -0.958 | 3.12 | -15.8% | -0.566% |
| CN(Cc1ncc[nH]1)C(=O)C1CCC(=O)N(CCc2ccccn2)C1 (stereo not given) | -2.29 | -0.158 | -12.8 | -1.99% | -7.74% |
| Cc1cc(-c2nc3cc(F)ccc3s2)ccc1NC(=O)[C@@H](N)CCCCN | -15.4 | 2.77 | -5.55 | -13.9% | -5.66% |
| C/C1=C\CC(C)(C)/C=C/C/C(C(=O)O)=C/CC1 | -3.25 | -8.02 | 3.9 | -24.6% | -13% |
| CC1CCCN(c2ncnc3c2CN(c2cccnc2)C(=O)CN3C)C1 (stereo not given) | -4.6 | -5.64 | -1.57 | -11.8% | -5.36% |
| CCCC1c2cccn2CCN1C(=O)Nc1cc(Cl)ccc1OC (stereo not given) | 1.99 | 0 | -27.1 | 5.07% | 8.65% |
| CNC(=O)c1cccc(S(=O)(=O)NC2CCCN(C3CCCCCC3)C2)c1 (stereo not given) | -1.72 | -6.08 | -4.13 | -3.32% | -2.08% |
| CCc1cc(C(=O)N2CCOCC2CC(=O)N2CCSCC2)cs1 (stereo not given) | -0.765 | 2.08 | 3.56 | -1.6% | 3.24% |
| COCC(=O)N1CCC(Oc2ccccc2C(=O)N2CCN(c3ccccn3)CC2)CC1 | -1.48 | -2.18 | -2.73 | -5.08% | -3.27% |
| O=C(Cn1ccc2cc(S(=O)(=O)N3CCCCC3)ccc21)NCCCN1CCCC1 | 0.567 | 0 | -26.4 | 2.61% | -4.24% |
| O=C1Nc2ccccc2C(=O)N2CC[C@H](NS(=O)(=O)c3cccs3)[C@@H]12 | -4.67 | -1.92 | -3.15 | -6.64% | -4.09% |
| C=CCOc1c(OC)ccc2c1CN(Cc1ccco1)C(=O)CCN2CC(O)COCc1ccco1 (stereo not given) | -15.5 | -6.66 | -5.67 | -14.3% | -8.38% |
| COc1ccc2c(c1)C=C1Cn3c-2c(C2CCCCC2)c2ccc(cc23)C(=O)NS(=O)(=O)N(C)CCOCCN(C)C1=O | -7.22 | 9.54 | -10 | -43.3% | 0.492% |
| CCc1ccccc1NS(=O)(=O)c1ccc2c(c1)n(C)c(=O)n2C | -1.85 | 6.35 | -2.51 | -9.78% | -6.76% |
